# Laboratory results as given in PubChem BioAssay AID504332 (National Center for Advancing Translational Sciences (NCATS), 2011).
# Hit rate of the full screen: of about 350,000 compounds, about 31,000 (8.9%) were called active. The shares of active, inactive and inconclusive entries below differ from those in the screen. The call rests on the fitted dose curve; in most records, active means well fitted inhibition curve with a large enough effect; inconclusive means small, poorly fitted or top-dose-only effect; inactive means no such curve, though single readings can be large or run the other way. Potencies beside an inconclusive call are fits to weak or partial responses and may not hold up.
# Molecular target: Histone-lysine N-methyltransferase EHMT2 (Homo sapiens) (UniProt Q96KQ7)
# Chain of UniProt Q96KQ7 (Q96KQ7 whole entry, looked up): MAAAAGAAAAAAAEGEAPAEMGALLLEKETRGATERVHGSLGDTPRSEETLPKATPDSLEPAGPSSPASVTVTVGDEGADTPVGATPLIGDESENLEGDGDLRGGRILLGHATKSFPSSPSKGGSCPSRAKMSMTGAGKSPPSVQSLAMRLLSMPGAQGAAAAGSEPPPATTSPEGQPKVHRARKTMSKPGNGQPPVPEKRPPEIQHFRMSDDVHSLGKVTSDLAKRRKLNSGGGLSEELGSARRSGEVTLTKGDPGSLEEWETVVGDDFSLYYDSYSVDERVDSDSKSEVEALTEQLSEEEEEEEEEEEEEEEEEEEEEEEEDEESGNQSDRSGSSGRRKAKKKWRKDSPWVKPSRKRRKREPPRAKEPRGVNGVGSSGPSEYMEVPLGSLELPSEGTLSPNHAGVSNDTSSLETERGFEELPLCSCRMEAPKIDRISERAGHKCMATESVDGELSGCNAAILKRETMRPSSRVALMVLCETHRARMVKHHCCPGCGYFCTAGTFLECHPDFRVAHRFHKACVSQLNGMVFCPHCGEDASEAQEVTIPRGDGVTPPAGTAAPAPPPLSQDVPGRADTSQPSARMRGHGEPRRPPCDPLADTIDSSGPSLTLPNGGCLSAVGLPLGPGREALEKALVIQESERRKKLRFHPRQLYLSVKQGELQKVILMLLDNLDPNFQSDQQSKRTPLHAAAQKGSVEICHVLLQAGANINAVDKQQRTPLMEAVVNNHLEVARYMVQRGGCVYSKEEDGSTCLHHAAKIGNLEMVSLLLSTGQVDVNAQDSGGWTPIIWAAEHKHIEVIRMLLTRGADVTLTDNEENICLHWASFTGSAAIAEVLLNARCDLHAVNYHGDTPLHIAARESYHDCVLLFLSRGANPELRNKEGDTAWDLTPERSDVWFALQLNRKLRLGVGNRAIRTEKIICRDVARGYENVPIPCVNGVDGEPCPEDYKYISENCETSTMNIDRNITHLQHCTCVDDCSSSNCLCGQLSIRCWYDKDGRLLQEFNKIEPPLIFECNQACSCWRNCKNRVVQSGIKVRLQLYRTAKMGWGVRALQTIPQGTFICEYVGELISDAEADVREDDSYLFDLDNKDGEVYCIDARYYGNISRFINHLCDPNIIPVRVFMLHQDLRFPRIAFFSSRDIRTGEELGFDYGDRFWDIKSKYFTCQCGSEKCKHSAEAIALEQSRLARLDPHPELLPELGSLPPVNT
# Assay: qHTS Assay for Inhibitors of Histone Lysine Methyltransferase G9a; further: nearly all actives have a fitted effect of over 75% in size
# Conditions: G9a H3K9 monomethylation, AlphaScreen, 2 h; activity, negative = inhibition: at 59 µM (top of the series) unless noted
# Outline: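 G9a (20 nM) was preincubated 15 min with compound, then reacted 2 h at room temperature with 500 nM biotin-H3K9 peptide and 20 µM SAM. Monomethyl-H3K9 detected by AlphaScreen using anti-H3K9me1 antibody.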
# On the % scale 0 is the no-effect control and ±100 the full control effect; potency means the concentration at half of the fitted maximal effect; tags describe the fitted curve by direction and shape.
Compound,"activity, negative = inhibition",Potency
O=C(O)c1ccccc1C(=O)Nc1cc(C(F)(F)F)ccc1N1CCCC1,inactive: -8.44% [at 102 µM],–
O=C1CCCC2=C1C(c1ccc3c(c1)OCO3)c1c([nH]n(-c3ccccc3)c1=O)N2 (stereo unspecified),–,active: 39.8 µM
CCN1CCN(c2ccc(S(=O)(=O)N3CCCCC3)cc2NC(=O)/C=C/c2ccc([N+](=O)[O-])cc2)CC1,–,active: 17.8 µM
Cc1cc(NCCCn2ccnc2)n2nc(C)c(-c3ccccc3)c2n1,inactive: -41%,–
C=CCNC(=S)N1CCN(Cc2ccccc2)CC1,–,active: 7.94 µM
Cc1cc2ccccc2n1CCNC(=O)c1ccc(Br)cc1,inactive: -27.5%,–
O=C(Nc1cccc(S(=O)(=O)NC2=NCCC2)c1)c1cc(Cl)ccc1[N+](=O)[O-],–,active: 50.1 µM
COc1cccc(CN2CC(C(=O)NCCCc3ccncc3)CCC2=O)c1 (stereo unspecified),–,"inconclusive: 35.5 µM [inhibitor, partial curve]"
CCOc1ccccc1CN1CCNC(=O)C1CC(=O)NCc1nc(C)cs1 (stereo unspecified),–,"inconclusive: 70.8 µM [inhibitor, single point]"
C/C(=N\O)C(=O)NCCN(C)C,–,"inconclusive: 22.4 µM [inhibitor, single point]"
CC(=O)c1c(NCCc2ccccc2)nc(=S)n(-c2ccccc2)c1C,inactive: -1.6% [at 102 µM],–
COc1cccc(CN(C)C(=O)c2cccc(OCc3ccccc3)c2)c1,inactive: 77.5% [at 102 µM],–
CCOC(=O)N1CCC(NC(=O)c2ccc3c(c2)sc2nc(-c4ccccc4)cn23)CC1,–,"inconclusive: 70.8 µM [inhibitor, single point]"
Cc1c(Cl)cnc(NC(=O)COC(=O)c2ccc3ncsc3c2)c1Cl,–,"inconclusive: 28.2 µM [inhibitor, single point]"
Cc1ccc(N2CC(C(=O)Nc3ccc(N(C)C)cc3)CC2=O)cc1Cl (stereo unspecified),–,"inconclusive: 0.398 µM [inhibitor, full curve, poor fit]"
N#Cc1ccc(-c2nnnn2-c2ccc3c(c2)OCO3)cc1,–,"inconclusive: 4.47 µM [inhibitor, single point]"
COc1ccc(N2CCC(CNC(=S)Nc3c(C)cc(C)cc3C)C2)cc1 (stereo unspecified),–,"inconclusive: 3.16 µM [inhibitor, partial curve, poor fit]"
COc1ccc(-n2c(C)cc(-c3cn4cccc(C)c4n3)c2C)cc1,–,"inconclusive: 89.1 µM [inhibitor, single point]"
CCN(CC)c1ccc(NC(=O)CCCN2C(=O)C(c3ccccc3)Oc3cccnc32)c(C)c1 (stereo unspecified),–,active: 2.82 µM
O=C(CN1CCN(c2ncccn2)CC1)NCc1ccc2c(c1)OCO2,inactive: 7.55% [at 102 µM],–
CCOc1cc(Cl)c(S(=O)(=O)n2ccnc2)cc1Cl,inactive: 4.65%,–
C=CCC(C=C)[N+]1(CC(=O)OC)CCCCC1 (stereo unspecified),inconclusive: -59.2% [inhibitor] [at 102 µM],–
CCC(C(=O)N1CCN(c2ccccc2)CC1)n1c(C)c2cnn(-c3ccccc3)c(=O)c2c1C (stereo unspecified),inactive: -22%,–

Compound,"activity, negative = inhibition",Potency
CCOC(=O)C1CCN(C(=O)COC(=O)CCOc2ccc(C)cc2)CC1,–,"inconclusive: 0.1 µM [inhibitor, full curve, poor fit]"
CCOC(=O)c1ccc(NC(=O)CSc2nncn2-c2cccnc2)cc1,inactive: 9.18% [at 102 µM],–
O=C(CCCN1C(=O)/C(=C/c2cccs2)SC1=S)Nc1ccccn1,–,"inconclusive: 2.24 µM [inhibitor, full curve]"
Cc1cc(C)c2nc3nc(C)c(C)cc3c(N)c2c1,–,active: 50.1 µM
O=C(N/N=C/C(Cl)=C/c1ccccc1)c1ccncc1,inactive: 2.4% [at 102 µM],–
CC(C)Oc1ccc(C(=O)Nc2c(C(=O)Nc3cccc(F)c3)oc3ccccc23)cc1,–,"inconclusive: 20 µM [inhibitor, partial curve, poor fit]"
COC(=O)c1[nH]c2ccccc2c1NC(=O)CNC1CCCCC1,–,"inconclusive: 50.1 µM [inhibitor, partial curve, poor fit]"
Clc1cccc(N/N=C/c2ccncc2)c1,–,"inconclusive: 39.8 µM [inhibitor, single point]"
Cc1c(NC(=O)c2ccc3c(c2)C(=O)N(Cc2ccco2)C3=O)cccc1C(=O)O,–,"inconclusive: 1.78 µM [inhibitor, full curve, poor fit]"
Cc1cc(S(=O)(=O)NCC(c2ccccc2)c2ccccc2)ccc1-n1cnnn1,–,"inconclusive: 28.2 µM [inhibitor, partial curve, poor fit]"
CCC(C)(C)n1nnnc1CN(Cc1ccco1)Cc1cc2cc3c(cc2[nH]c1=O)OCO3,–,"inconclusive: 39.8 µM [inhibitor, partial curve, poor fit]"
CC1CCCN(C(=O)c2ccc3nc[nH]c3c2)C1 (stereo unspecified),–,"inconclusive: 3.98 µM [inhibitor, single point]"
Cc1ccc(Cn2ccc(NC(=O)c3noc4c3CCc3ccccc3-4)n2)cc1,inactive: 29.9%,–
CCN(CC(=O)NCc1ccco1)S(=O)(=O)c1ccc(OC)cc1,inactive: 23.1% [at 0.501 µM],–
COc1ccc(N2CCN(CCNC(=O)c3ccc(NC(=O)C4CCCO4)cc3)CC2)cc1 (stereo unspecified),–,"inconclusive: 10 µM [inhibitor, partial curve, poor fit]"
COC(=O)COc1ccc(S(=O)(=O)Nc2cc([N+](=O)[O-])ccc2C)cc1,inactive: -4.66% [at 102 µM],–
O=C(CSc1nnc(-c2ccncc2)n1-c1ccc(Cl)cc1)Nc1ccc(C(=O)O)cc1,–,"inconclusive: 89.1 µM [inhibitor, single point]"
Cn1nnnc1SCC(=O)Nc1nc2ccccc2s1,–,"inconclusive: 89.1 µM [inhibitor, partial curve, poor fit]"
CCOC(=O)N1CCN(C(=O)c2ccc(CNS(=O)(=O)c3ccc(C)cc3)cc2)CC1,inactive: -3.3% [at 102 µM],–
CCOC(=O)CN1c2ccccc2NC(=O)CC1C (stereo unspecified),–,active: 44.7 µM
CCN1C(=O)C(CC(=O)Nc2ccc(C)cc2C)Nc2cc(S(=O)(=O)N(C)C)ccc21 (stereo unspecified),inactive: -32.1% [at 102 µM],–
CCOC(=O)/C(=C/c1ccc(OC(=O)c2ccncc2)cc1)C(C)=O,–,active: 22.4 µM
CCC(c1nnnn1CCOC)N(Cc1cc2cc(C)c(C)cc2[nH]c1=O)CC1CCCO1 (stereo unspecified),–,"inconclusive: 25.1 µM [inhibitor, single point]"
